According to the supplement of paper PMC8728848:
The list shows a part of the results.

What was measured:
Test in all cases: glycan array binding signal (z-score within array); higher = stronger binding
Conditions in all cases: glycan notation: IUPAC condensed, linker removed
Fuc(a1-2)Gal = biological target: Fuc(a1-2)Gal
Procedure, shortened: (§1)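 From the Consortium for Functional Glycomics database, 3228 arrays were curated, keeping only those whose protein sequence was available. Binding is given as a within-array Z-score averaged across arrays sharing a protein sequence and across linkers. Negative Z-scores can be read as non-binding.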

Fuc(a1-2)Gal(b1-3)GalNAc = biological target: Fuc(a1-2)Gal(b1-3)GalNAc
Procedure, shortened: as §1

[1] = biological target: Fuc(a1-2)Gal(b1-3)GalNAc(a1-3)[Fuc(a1-2)]Gal(b1-4)Glc
Procedure, shortened: as §1

[2] = biological target: Fuc(a1-2)Gal(b1-3)GalNAc(a1-3)[Fuc(a1-2)]Gal(b1-4)GlcNAc
Procedure, shortened: as §1

[3] = biological target: Fuc(a1-2)Gal(b1-3)GalNAc(b1-3)Gal
Procedure, shortened: as §1

[4] = biological target: Fuc(a1-2)Gal(b1-3)GalNAc(b1-3)Gal(a1-4)Gal(b1-4)Glc
Procedure, shortened: as §1

[5] = biological target: Fuc(a1-2)Gal(b1-3)GalNAc(b1-4)[Neu5Ac(a2-3)]Gal(b1-4)Glc
Procedure, shortened: as §1

Fuc(a1-2)Gal(b1-3)GlcNAc = biological target: Fuc(a1-2)Gal(b1-3)GlcNAc
Procedure, shortened: as §1

[6] = biological target: Fuc(a1-2)Gal(b1-3)GlcNAc(b1-2)Man(a1-3)[Fuc(a1-2)Gal(b1-3)GlcNAc(b1-2)Man(a1-6)]Man(b1-4)GlcNAc(b1-4)GlcNAc
Procedure, shortened: as §1

[7] = biological target: Fuc(a1-2)Gal(b1-3)GlcNAc(b1-2)Man(a1-3)[Fuc(a1-2)Gal(b1-3)GlcNAc(b1-2)Man(a1-6)]Man(b1-4)GlcNAc(b1-4)[Fuc(a1-6)]GlcNAc
Procedure, shortened: as §1

[8] = biological target: Fuc(a1-2)Gal(b1-3)GlcNAc(b1-3)Gal(b1-4)Glc
Procedure, shortened: as §1

[9] = biological target: Fuc(a1-2)Gal(b1-3)GlcNAc(b1-3)GalNAc
Procedure, shortened: as §1

[10] = biological target: Fuc(a1-2)Gal(b1-3)GlcNAc(b1-3)[Fuc(a1-2)Gal(b1-3)GlcNAc(b1-6)]GalNAc
Procedure, shortened: as §1

[11] = biological target: Fuc(a1-2)Gal(b1-3)GlcNAc(b1-3)[Gal(b1-4)GlcNAc(b1-6)]Gal(b1-4)Glc
Procedure, shortened: as §1

[12] = biological target: Fuc(a1-2)Gal(b1-3)GlcNAc(b1-3)[Neu5Ac(a2-6)Gal(b1-4)GlcNAc(b1-6)]Gal(b1-4)Glc
Procedure, shortened: as §1

[13] = biological target: Fuc(a1-2)Gal(b1-3)GlcNAc6S
Procedure, shortened: as §1

[14] = biological target: Fuc(a1-2)Gal(b1-3)[Fuc(a1-4)]GlcNAc
Procedure, shortened: as §1

[15] = biological target: Fuc(a1-2)Gal(b1-3)[Fuc(a1-4)]GlcNAc(b1-2)Man(a1-3)[Fuc(a1-2)Gal(b1-3)[Fuc(a1-4)]GlcNAc(b1-2)Man(a1-3)]Man(b1-4)GlcNAc(b1-4)GlcNAc
Procedure, shortened: as §1

[16] = biological target: Fuc(a1-2)Gal(b1-3)[Fuc(a1-4)]GlcNAc(b1-2)Man(a1-3)[Fuc(a1-2)Gal(b1-3)[Fuc(a1-4)]GlcNAc(b1-2)Man(a1-6)]Man(b1-4)GlcNAc(b1-4)[Fuc(a1-6)]GlcNAc(b1-4)[Fuc(a1-6)]GlcNAc
Procedure, shortened: as §1

[17] = biological target: Fuc(a1-2)Gal(b1-3)[Fuc(a1-4)]GlcNAc(b1-3)[Fuc(a1-3)[Gal(b1-4)]GlcNAc(b1-6)]Gal(b1-4)Glc
Procedure, shortened: as §1

[18] = biological target: Fuc(a1-2)Gal(b1-3)[Fuc(a1-4)]GlcNAc(b1-3)[Gal(b1-4)GlcNAc(b1-6)]Gal(b1-4)Glc
Procedure, shortened: as §1

[19] = biological target: Fuc(a1-2)Gal(b1-4)Fuc(a1-3)]GlcNAc(b1-2)Man(a1-3)[Fuc(a1-2)Gal(b1-4)[Fuc(a1-3)]GlcNAc(b1-2)Man(a1-6)]Man(b1-4)GlcNAc(b1-4)GlcNAc
Procedure, shortened: as §1

Fuc(a1-2)Gal(b1-4)Glc = biological target: Fuc(a1-2)Gal(b1-4)Glc
Procedure, shortened: as §1

Fuc(a1-2)Gal(b1-4)Glc6S = biological target: Fuc(a1-2)Gal(b1-4)Glc6S
Procedure, shortened: as §1

Fuc(a1-2)Gal(b1-4)GlcNAc = biological target: Fuc(a1-2)Gal(b1-4)GlcNAc
Procedure, shortened: as §1

[20] = biological target: Fuc(a1-2)Gal(b1-4)GlcNAc(b1-2)Man
Procedure, shortened: as §1

[21] = biological target: Fuc(a1-2)Gal(b1-4)GlcNAc(b1-2)Man(a1-3)[Fuc(a1-2)Gal(b1-4)GlcNAc(b1-2)Man(a1-6)]Man(b1-4)GlcNAc(b1-4)GlcNAc
Procedure, shortened: as §1

[22] = biological target: Fuc(a1-2)Gal(b1-4)GlcNAc(b1-2)Man(a1-3)[Fuc(a1-2)Gal(b1-4)GlcNAc(b1-2)Man(a1-6)]Man(b1-4)GlcNAc(b1-4)[Fuc(a1-6)]GlcNAc
Procedure, shortened: as §1

[23] = biological target: Fuc(a1-2)Gal(b1-4)GlcNAc(b1-2)[Fuc(a1-2)Gal(b1-4)GlcNAc(b1-4)]Man(a1-3)[Fuc(a1-2)Gal(b1-4)GlcNAc(b1-2)Man(a1-6)]Man(b1-4)GlcNAc(b1-4)GlcNAc
Procedure, shortened: as §1

[24] = biological target: Fuc(a1-2)Gal(b1-4)GlcNAc(b1-3)Gal(b1-4)GlcNAc
Procedure, shortened: as §1

[25] = biological target: Fuc(a1-2)Gal(b1-4)GlcNAc(b1-3)Gal(b1-4)GlcNAc(b1-2)Man(a1-3)[Fuc(a1-2)Gal(b1-4)GlcNAc(b1-3)Gal(b1-4)GlcNAc(b1-2)Man(a1-6)]Man(b1-4)GlcNAc(b1-4)GlcNAc
Procedure, shortened: as §1

[26] = biological target: Fuc(a1-2)Gal(b1-4)GlcNAc(b1-3)Gal(b1-4)GlcNAc(b1-3)Gal(b1-4)GlcNAc
Procedure, shortened: as §1

[27] = biological target: Fuc(a1-2)Gal(b1-4)GlcNAc(b1-3)GalNAc
Procedure, shortened: as §1

[28] = biological target: Fuc(a1-2)Gal(b1-4)GlcNAc(b1-3)[Fuc(a1-2)Gal(b1-4)GlcNAc(b1-6)]GalNAc
Procedure, shortened: as §1

[29] = biological target: Fuc(a1-2)Gal(b1-4)GlcNAc(b1-3)[Fuc(a1-3)[Gal(b1-4)]GlcNAc(b1-6)]Gal(b1-4)Glc
Procedure, shortened: as §1

[30] = biological target: Fuc(a1-2)Gal(b1-4)GlcNAc(b1-6)GalNAc
Procedure, shortened: as §1

[31] = biological target: Fuc(a1-2)Gal(b1-4)GlcNAc6S
Procedure, shortened: as §1

B1: Arath Fbox (Arabidopsis thaliana), NP_178341.1 (protein)
chain: EFTWGRKRRVKSESSPFDSFPEDCISYIISFTNPRDACVAATVSKTFESTVKSDIIWEKFLPADYESLIPPSRVFSSKKELYFSLCNDPVLFDDDKKSVWLEKASGKRCLMLSAMNLSIIWGDNPQYWQWIPIPESRFEKVAKLRDVCWFEIRGRTNTRVLSPRTRYSAYIVFKGVDKCYGFQNVAIEAAVGVVGQEPSRRLICFSEAIRRGRRNVVKPKQREDGWMEIELGEFFNDGGIMDNDEIEMSALETKQLNRKCGLIIQGIEIRPAKILAAAAASFLEQKLISEEDLNSAVDHHHHHH
Fuc(a1-2)Gal
  glycan array binding signal (z-score): -0.268
Fuc(a1-2)Gal(b1-3)GalNAc
  glycan array binding signal (z-score): -0.555
[1]
  glycan array binding signal (z-score): -0.513
[2]
  glycan array binding signal (z-score): -0.4
[3]
  glycan array binding signal (z-score): -0.003
[4]
  glycan array binding signal (z-score): -0.544
[5]
  glycan array binding signal (z-score): -0.123
Fuc(a1-2)Gal(b1-3)GlcNAc
  glycan array binding signal (z-score): -0.233
[6]
  glycan array binding signal (z-score): -0.26
[7]
  glycan array binding signal (z-score): 0.222
[8]
  glycan array binding signal (z-score): -0.36
[9]
  glycan array binding signal (z-score): -0.769
[10]
  glycan array binding signal (z-score): -0.498
[11]
  glycan array binding signal (z-score): 0.186
[12]
  glycan array binding signal (z-score): -0.599
[13]
  glycan array binding signal (z-score): -0.085
[14]
  glycan array binding signal (z-score): -0.571
[15]
  glycan array binding signal (z-score): 0.658
[16]
  glycan array binding signal (z-score): -0.367
[17]
  glycan array binding signal (z-score): -0.711
[18]
  glycan array binding signal (z-score): -0.455
[19]
  glycan array binding signal (z-score): 1.04
Fuc(a1-2)Gal(b1-4)Glc
  glycan array binding signal (z-score): 0.071
Fuc(a1-2)Gal(b1-4)Glc6S
  glycan array binding signal (z-score): -0.052
Fuc(a1-2)Gal(b1-4)GlcNAc
  glycan array binding signal (z-score): 0.005
[20]
  glycan array binding signal (z-score): -0.487
[21]
  glycan array binding signal (z-score): 1.45
[22]
  glycan array binding signal (z-score): 0.364
[23]
  glycan array binding signal (z-score): 0.561
[24]
  glycan array binding signal (z-score): -0.627
[25]
  glycan array binding signal (z-score): 1.65
[26]
  glycan array binding signal (z-score): -0.732
[27]
  glycan array binding signal (z-score): 0.925
[28]
  glycan array binding signal (z-score): 0.463
[29]
  glycan array binding signal (z-score): -0.746
[30]
  glycan array binding signal (z-score): 0.226
[31]
  glycan array binding signal (z-score): -0.751
